This note sets out measurements from the supplement of paper PMC10126150.

Sequences with one replicate were seen in a single cluster, so their values are uncertain.
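Further: ATP exposure 15 min at 22 °C before imaging.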

This data set relates to ATP. In words: switch fluorescence ratio, 500 uM ATP over buffer (Cy3 cluster intensity, sum of 5 cycles each) (fold (ratio)); higher = stronger signal-on switching upon ATP binding; sequences stand for … in TCGTCGGCAGCGTCAGATGTGTATAAGAGACAGTTTTTTTTTTTTTTTTTTTTTTTTT…TC. The note with it: aptamer strand: ATP DNA aptamer (quencher-CACCTGGGGGAGTATTGCGGAGGAAGG + anchor), 100 nM annealed; ATP concentration: 500 uM; one replicate. An outline of the steps: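 Clusters with intensities outside 100-1000 RFU were excluded. The remaining Cy3-labelled switching-strand clusters on a modified Illumina MiSeq flow-cell had been annealed to 100 nM quencher-labelled ATP aptamer and imaged in selection buffer, then after 15 min with 500 uM ATP at 22 °C, for five cycles separated by NaOH stripping and re-annealing. The fluorescence ratio, averaged per switch-domain sequence, is each cluster's summed target-cycle Cy3 intensity over its summed buffer-cycle Cy3 intensity.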
Consider CTCACGATCG, for which the switch fluorescence ratio was 1.03.

With CACACTTAAA, the switch fluorescence ratio was 1.01.

As to GAGTTCTTCG, the switch fluorescence ratio was found to be 0.963.

In the case of GACTAAAGTT, the switch fluorescence ratio came out at 1.01.

As to TGCTTCTCGC, the switch fluorescence ratio stood at 0.996.

Consider TTAGGTTCCT, for which the switch fluorescence ratio worked out at 1.06.

As to CATGATTGTC, the switch fluorescence ratio was determined as 1.07.

In the case of CCAGGTAGTA, the switch fluorescence ratio was determined as 1.23.

For AGGCTACGGA, the switch fluorescence ratio is 0.988.

Take AGTCCACGCT: the switch fluorescence ratio was determined as 1.04.

With TATTAGAGAA, the switch fluorescence ratio stood at 0.999.

In the case of ACTTTTGCAT, the switch fluorescence ratio was 1.

In the case of CGAATCGGAT, the switch fluorescence ratio came out at 1.01.

For GTAAATAGCA, the switch fluorescence ratio was 0.986.

For AAGGCTTGCG, the switch fluorescence ratio came to 0.96.

Take GTCTCACAGT: the switch fluorescence ratio turned out to be 1.03.

As for ACGCTCAC, the switch fluorescence ratio was determined as 2.13.

In the case of AGAGTTAGCG, the switch fluorescence ratio was 1.19.

As to GTGACCGCCG, the switch fluorescence ratio came out at 1.06.

ATGGACATA: the switch fluorescence ratio is 0.992.

Turning to GTTGGTACAG, the switch fluorescence ratio stood at 1.04.

CTGACCGGCC: the switch fluorescence ratio stood at 1.5.

For the sequence TTAGATAGAC, the switch fluorescence ratio was 1.09.

With TAACTCCGG, the switch fluorescence ratio was determined as 1.06.

Consider CAACTCAAAA, for which the switch fluorescence ratio stood at 1.05.

On to AGTGAAGCGC, for which the switch fluorescence ratio amounted to 0.963.

For GTGCTTACGT, the switch fluorescence ratio came out at 0.979.

For AACAGAAATG, the switch fluorescence ratio came out at 0.995.

In the case of GAGGTACATA, the switch fluorescence ratio worked out at 1.06.

Take AGGTGAGCCC: the switch fluorescence ratio turned out to be 0.928.

Consider TGCTGGGGAG, for which the switch fluorescence ratio was 1.04.

On to TAATCCATA, for which the switch fluorescence ratio came to 1.03.

Take AAGAGAGAT: the switch fluorescence ratio came to 1.03.

In the case of GGCTCAGCGA, the switch fluorescence ratio worked out at 1.86.

On to TGAGACTGCT, for which the switch fluorescence ratio was 1.01.

For the sequence AAGACTGCAC, the switch fluorescence ratio came out at 1.34.

Turning to GAGGATGTAG, the switch fluorescence ratio worked out at 0.942.

For CGCTGATGAA, the switch fluorescence ratio came to 0.979.

For the sequence TAGGCGATGA, the switch fluorescence ratio is 1.01.

Take AGAGTTGCGG: the switch fluorescence ratio came out at 0.954.

With TTAGAAAAAT, the switch fluorescence ratio turned out to be 0.984.

Take TCTGAATAAA: the switch fluorescence ratio is 2.45.

With CCAGCTTGGG, the switch fluorescence ratio came out at 0.992.

On to GGTCCGTGTG, for which the switch fluorescence ratio turned out to be 1.01.

For TGGAAGTCTG, the switch fluorescence ratio turned out to be 0.984.

As to AGAGGGCCTG, the switch fluorescence ratio stood at 0.951.

As to GCAAATTAAG, the switch fluorescence ratio was 1.04.

For the sequence TCATCACTTA, the switch fluorescence ratio turned out to be 1.07.

CCTGGCGAAA: the switch fluorescence ratio was 1.15.

Turning to TAAACTTGT, the switch fluorescence ratio stood at 1.01.

Consider GATTCGGTCC, for which the switch fluorescence ratio stood at 1.02.

ACGAACTTAA: the switch fluorescence ratio is 1.28.

On to GCTGACTACG, for which the switch fluorescence ratio was 1.04.

For the sequence GAGCTGAATA, the switch fluorescence ratio turned out to be 0.984.

For ACTTGCTCCG, the switch fluorescence ratio came to 4.54.

Turning to ATTGGCATTC, the switch fluorescence ratio came out at 1.07.

For the sequence GTCATCAGGC, the switch fluorescence ratio was 1.05.

In the case of GGCATGGATC, the switch fluorescence ratio was 0.998.

For ATTATATGGC, the switch fluorescence ratio amounted to 0.961.

CATTCTCGTA: the switch fluorescence ratio was 1.04.

As to TTGTGGCCGA, the switch fluorescence ratio was 0.978.

As for GTAAAACGTC, the switch fluorescence ratio came to 0.986.

With AACGTCCATC, the switch fluorescence ratio came out at 1.

Take CGGCTAGGCA: the switch fluorescence ratio worked out at 0.987.

In the case of CCTTATCTCA, the switch fluorescence ratio came to 1.03.

For the sequence AGCTCCACGG, the switch fluorescence ratio is 1.16.

Regarding TTTTACCGAA, the switch fluorescence ratio is 1.06.

For the sequence GGGCAAGTTT, the switch fluorescence ratio amounted to 0.957.

As for GTGATGGGTA, the switch fluorescence ratio is 1.01.

GATGCGAACG: the switch fluorescence ratio came out at 0.989.

Regarding CGGGAATGGG, the switch fluorescence ratio was 0.99.

Turning to GTCACGGCTG, the switch fluorescence ratio was found to be 1.05.

Take CATACAACTT: the switch fluorescence ratio was 1.05.

As to TGTAGGTT, the switch fluorescence ratio came out at 1.

Consider TAATGCTATG, for which the switch fluorescence ratio worked out at 0.958.

As for TAGAGACGTT, the switch fluorescence ratio stood at 0.981.

As for AGGCTTAGCC, the switch fluorescence ratio stood at 0.991.

As to GTAGAGCCTT, the switch fluorescence ratio was found to be 0.973.

On to ATCCTTTAGA, for which the switch fluorescence ratio was 1.01.
